Test results taken from the supplement of paper PMC7580552.
Where a name gives a salt, the structure may show the parent alone. The list shows a part of the results. Many values rest on one well or one pass, so single values are uncertain.
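Note: stationary (unshaken) cultures in 96-well plates, started at OD600 0.05 from mid-exponential cells, with compounds supplied from DMSO stocks.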

What follows are compounds tested on Escherichia coli W3110 (assay: planktonic growth (OD600) relative to untreated control; higher = more growth). Details: 10 µM; 20-24 h; 30 °C; TB.
Compound `COc1cc2nc(N3CCN(C(=O)C4CCCO4)CC3)nc(N)c2cc1OC` (stereo unspecified) [Terazosin hydrochloride] has a planktonic growth of 103%. Work on `CC(=O)OCC(=O)[C@@]1(O)CC[C@H]2[C@@H]3CCC4=CC(=O)C=C[C@]4(C)[C@@]3(F)[C@@H](O)C[C@@]21C` [Isoflupredone acetate] yielded a planktonic growth of 101%. For `COc1cc(C(=O)N2CCOCC2)cc(OC)c1OC` [Trimetozine], the planktonic growth was 95%. In the case of `C#C[C@]1(O)CC[C@H]2[C@@H]3[C@H](C)CC4=C(CCC(=O)C4)[C@H]3CC[C@@]21C` [Tibolone], the planktonic growth was 105%. `CN(C)CCCOc1nn(Cc2ccccc2)c2ccccc12` [Benzydamine hydrochloride] showed a planktonic growth of 91%. `CN1CCN(C(c2ccccc2)c2ccc(Cl)cc2)CC1` (stereo unspecified) [Chlorcyclizine hydrochloride] showed a planktonic growth of 97%. `O=C(N/N=C/c1ccc([N+](=O)[O-])o1)c1ccc(O)cc1` [Nifuroxazide] was tested, and the planktonic growth was 92%. Compound `CN(N=O)C(=O)N[C@@H](C=O)[C@@H](O)[C@H](O)[C@H](O)CO` [Streptozotocin] has a planktonic growth of 93%. `CCC(=O)[C@@]1(C)[C@H](C)C[C@H]2[C@@H]3CCC4=CC(=O)C=C[C@]4(C)[C@H]3[C@@H](O)C[C@@]21C` [Rimexolone] gave a planktonic growth of 92%. `CC(=O)Nc1c(I)c(NC(C)=O)c(I)c(C(=O)O)c1I` [Diatrizoic acid dihydrate] gave a planktonic growth of 97%. In the case of `CCc1cc(C(N)=S)ccn1` [Ethionamide], the planktonic growth was 97%. Compound `CCc1c2c(nc3ccc(OC(=O)N4CCC(N5CCCCC5)CC4)cc13)-c1cc3c(c(=O)n1C2)COC(=O)[C@]3(O)CC` [Irinotecan hydrochloride trihydrate] has a planktonic growth of 114%. With `CNCCC=C1c2ccccc2CCc2ccccc21` [Nortriptyline hydrochloride] the planktonic growth was 92%. For `C[C@H]1[C@H](NC(=O)/C(=N\OC(C)(C)C(=O)O)c2csc(N)n2)C(=O)N1S(=O)(=O)O` [Aztreonam], the planktonic growth was 20%. `Cc1c(Cl)cccc1Nc1ncccc1C(=O)O` [Clonixin Lysinate] showed a planktonic growth of 97%. `Cc1ccc(/C(=C\CN2CCCC2)c2ccccn2)cc1` [Triprolidine hydrochloride] gave a planktonic growth of 95%. `CC(C)(O/N=C(\C(=O)N[C@@H]1C(=O)N2C(C(=O)[O-])=C(C[n+]3ccccc3)CS[C@H]12)c1csc(N)n1)C(=O)O` [Ceftazidime pentahydrate] was tested, and the planktonic growth was 3%. With `C[C@]12C=CC(=O)C=C1CC[C@@H]1[C@@H]2C(=O)C[C@@]2(C)[C@H]1CC[C@]2(O)C(=O)CO` [Prednisone] the planktonic growth was 99%. Compound `CNC(=C[N+](=O)[O-])NCCSCc1csc(CN(C)C)n1` [Nizatidine] has a planktonic growth of 106%. In the case of `CC(C)CN(C[C@@H](O)[C@H](Cc1ccccc1)NC(=O)O[C@H]1CCOC1)S(=O)(=O)c1ccc(N)cc1` [Amprenavir], the planktonic growth was 93%. For `CCn1cc(C(=O)O)c(=O)c2cc(F)c(N3CCNC(C)C3)c(F)c21` (stereo unspecified) [Lomefloxacin hydrochloride], the planktonic growth was 26%. Work on `COc1cc(C)nc(-n2nc(C)cc2OC)n1` [Epirizole] yielded a planktonic growth of 94%. For `CS(=O)(=O)Nc1ccc([N+](=O)[O-])cc1Oc1ccccc1` [Nimesulide], the planktonic growth was 95%. Compound `CCn1cc(C(=O)O)c(=O)c2cc(F)c(N3CCN(C)CC3)cc21` [Pefloxacine] has a planktonic growth of 6%. `C[C@@H]1CN(c2c(F)c(N)c3c(=O)c(C(=O)O)cn(C4CC4)c3c2F)C[C@H](C)N1` [Sparfloxacin] showed a planktonic growth of 6%. In the case of `COc1ccc2cc(CCC(C)=O)ccc2c1` [Nabumetone], the planktonic growth was 95%. Work on `CCn1cc(C(=O)O)c(=O)c2ccc(C)nc21` [Nalidixic acid sodium salt] yielded a planktonic growth of 90%. In the case of `C#CCN(C)Cc1ccccc1` [Pargyline hydrochloride], the planktonic growth was 93%. `CCN(CC)CCNC(=O)c1cc(S(C)(=O)=O)ccc1OC` [Tiapride hydrochloride] was tested, and the planktonic growth was 90%. `O=C(CCCN1CC=C(n2c(=O)[nH]c3ccccc32)CC1)c1ccc(F)cc1` [Droperidol] was tested, and the planktonic growth was 100%. `COc1nc(C)nc(Cl)c1NC1=NCCN1` [Moxonidine] gave a planktonic growth of 87%. Work on `CCCCS(=O)(=O)N[C@@H](Cc1ccc(OCCCCC2CCNCC2)cc1)C(=O)O` [Tirofiban hydrochloride] yielded a planktonic growth of 105%. `COc1cc2nc(N3CCN(C(=O)c4ccco4)CC3)nc(N)c2cc1OC` [Prazosin hydrochloride] was tested, and the planktonic growth was 94%. For `CCn1cc(C(=O)O)c(=O)c2cnc(N3CCNCC3)nc21` [Pipemidic acid], the planktonic growth was 34%. Compound `Cc1ccc(S(=O)(=O)NC(=O)NN2CC3CCCC3C2)cc1` (stereo unspecified) [Gliclazide] has a planktonic growth of 98%. `COc1ccc(C(=O)NCc2cccnc2)cc1C(=O)NCc1cccnc1` [Picotamide monohydrate] was tested, and the planktonic growth was 93%. `NC[C@H]1O[C@H](O[C@H]2[C@H](O[C@@H]3O[C@H](CO)[C@@H](O)[C@H]3O)[C@@H](O)[C@H](N)C[C@@H]2N)[C@H](N)[C@@H](O)[C@@H]1O` [Ribostamycin sulfate salt] was tested, and the planktonic growth was 67%. `Cc1ccc(C(=O)c2cc(O)c(O)c([N+](=O)[O-])c2)cc1` [Tolcapone] was tested, and the planktonic growth was 94%. Work on `COc1ccc2[nH]cc(CCNC(C)=O)c2c1` [Melatonin] yielded a planktonic growth of 92%. Compound `CC(C)N1CCN(c2ccc(OCC3COC(Cn4cncn4)(c4ccc(Cl)cc4Cl)O3)cc2)CC1` (stereo unspecified) [Terconazole] has a planktonic growth of 93%. With `CN1C2CCCC1CC(NC(=O)c1nn(C)c3ccccc13)C2` (stereo unspecified) [Granisetron] the planktonic growth was 100%. With `Cc1ncc([N+](=O)[O-])n1CCO` [Metronidazole] the planktonic growth was 112%. For `CCN(CC)CC#CCOC(=O)C(O)(c1ccccc1)C1CCCCC1` (stereo unspecified) [Oxybutynin chloride], the planktonic growth was 107%. Work on `OC(CCN1CCCCC1)(c1ccccc1)C1CC2C=CC1C2` (stereo unspecified) [Biperiden hydrochloride] yielded a planktonic growth of 96%. Work on `O=C(NCCNCC(O)COc1ccc(O)cc1)N1CCOCC1` (stereo unspecified) [Xamoterol hemifumarate] yielded a planktonic growth of 104%. `CCN(Cc1ccncc1)C(=O)C(CO)c1ccccc1` (stereo unspecified) [Tropicamide] was tested, and the planktonic growth was 93%. Work on `CN(C)CCOC1=Cc2ccccc2Sc2ccc(Cl)cc21` [Zotepine] yielded a planktonic growth of 99%. With `CCN1CCN(C(=O)N[C@@H](C(=O)N[C@@H]2C(=O)N3[C@@H]2SC(C)(C)[C@@H]3C(=O)O)c2ccccc2)C(=O)C1=O` [Piperacillin sodium salt] the planktonic growth was 21%. `CO[C@@H]1[C@@H](OC(N)=O)[C@@H](O)[C@H](Oc2ccc3c(O)c(NC(=O)c4ccc(O)c(CC=C(C)C)c4)c(=O)oc3c2C)OC1(C)C` [Novobiocin sodium salt] showed a planktonic growth of 92%. In the case of `NC(=O)N/N=C/c1ccc([N+](=O)[O-])o1` [Nitrofural], the planktonic growth was 88%. For `CN1CCCCC1CCN1c2ccccc2Sc2ccc([S+](C)[O-])cc21` (stereo unspecified) [Mesoridazine besylate], the planktonic growth was 99%. Compound `CN1CCCC(n2nc(Cc3ccc(Cl)cc3)c3ccccc3c2=O)CC1` (stereo unspecified) [Azelastine hydrochloride] has a planktonic growth of 96%. In the case of `CN(C)CCC[C@@]1(c2ccc(F)cc2)OCc2cc(C#N)ccc21` [Escitalopram oxalate], the planktonic growth was 92%. In the case of `CCCC(=O)Nc1ncnc2c1ncn2[C@@H]1O[C@@H]2COP(=O)(O)O[C@H]2[C@H]1OC(=O)CCC` [Bucladesine sodium salt], the planktonic growth was 92%. In the case of `CC(=O)Oc1cccc2c1C(=O)c1c(OC(C)=O)cc(C(=O)O)cc1C2=O` [Diacerein], the planktonic growth was 104%. `CCC[C@H](N[C@@H](C)C(=O)N1[C@H](C(=O)O)C[C@@H]2CCCC[C@@H]21)C(=O)OCC` [Perindopril] was tested, and the planktonic growth was 94%. `COc1ccc(NS(=O)(=O)c2ccc(N)cc2)nn1` [Sulfamethoxypyridazine] was tested, and the planktonic growth was 68%. Compound `Nc1ccc(C(=O)NCC(=O)O)cc1` [Aminohippuric acid] has a planktonic growth of 94%. Work on `CC1(C)OC(=O)NC1=O` [Dimethadione] yielded a planktonic growth of 99%. For `N=C(N)NCC1COC2(CCCCC2)O1` (stereo unspecified) [Guanadrel sulfate], the planktonic growth was 105%. For `Nc1ccc(S(=O)(=O)c2ccc(N)cc2)cc1` [Dapsone], the planktonic growth was 76%. Compound `OCCN1CCN(CCCN2c3ccccc3Sc3ccc(Cl)cc32)CC1` [Perphenazine] has a planktonic growth of 106%. With `CN(C)CCc1c[nH]c2ccc(Cn3cncn3)cc12` [Rizatriptan benzoate] the planktonic growth was 93%. Work on `c1ccc(C2CN3CCSC3=N2)cc1` (stereo unspecified) [Tetramisole hydrochloride] yielded a planktonic growth of 93%. For `C=C1c2cccc(O)c2C(=O)C2=C(O)[C@]3(O)C(=O)C(C(N)=O)=C(O)[C@@H](N(C)C)[C@@H]3[C@@H](O)[C@H]12` [Methacycline hydrochloride], the planktonic growth was 23%. Work on `Cn1c(=O)c2nc[nH]c2n(C)c1=O` [Theophylline monohydrate] yielded a planktonic growth of 97%. Work on `Cc1scc2c1N(C(=O)CN1CCN(C)CC1)c1ccccc1NC2=O` [Telenzepine dihydrochloride] yielded a planktonic growth of 94%. Work on `CC(=O)c1ccc(S(=O)(=O)NC(=O)NC2CCCCC2)cc1` [Acetohexamide] yielded a planktonic growth of 89%. `CCCCC[C@H](O)/C=C/[C@@H]1[C@@H](C/C=C\CCCC(=O)O)[C@@H](O)C[C@H]1O` [Dinoprost trometamol] gave a planktonic growth of 89%. In the case of `CC(COc1ccccc1)N(CCCl)Cc1ccccc1` (stereo unspecified) [Phenoxybenzamine hydrochloride], the planktonic growth was 104%. In the case of `COc1ccc(CN(CCN(C)C)c2ccccn2)cc1` [Pyrilamine maleate], the planktonic growth was 105%. Work on `CCCNC(C)C(=O)Nc1ccccc1C` (stereo unspecified) [Prilocaine hydrochloride] yielded a planktonic growth of 95%. Compound `Cc1cc(=O)oc2cc(O)ccc12` [Hymecromone] has a planktonic growth of 91%. `CCOC(=O)c1ccc(OC(=O)CCCCCNC(=N)N)cc1` [Gabexate mesilate] showed a planktonic growth of 105%. Work on `CCCN[C@H]1CCc2nc(N)sc2C1` [Pramipexole dihydrochloride] yielded a planktonic growth of 93%. `COC1=C(OC)C(=O)C(CCCCCCCCCCO)=C(C)C1=O` [Idebenone] showed a planktonic growth of 105%.
